According to publication PMC4336329 (PLoS ONE, 2015):
Screen size: about 310,000 compounds; about 2,200 (0.71%) showed an effect of 50% or more. Effects have a minus sign here. This is one part of the list.

target: human ether-à-go-go-related gene (hERG) potassium channel (human, UniProt Q12809); experiment: primary screen, population patch clamp on CHO cells stably expressing hERG
Sequence (Q12809 whole entry, looked up): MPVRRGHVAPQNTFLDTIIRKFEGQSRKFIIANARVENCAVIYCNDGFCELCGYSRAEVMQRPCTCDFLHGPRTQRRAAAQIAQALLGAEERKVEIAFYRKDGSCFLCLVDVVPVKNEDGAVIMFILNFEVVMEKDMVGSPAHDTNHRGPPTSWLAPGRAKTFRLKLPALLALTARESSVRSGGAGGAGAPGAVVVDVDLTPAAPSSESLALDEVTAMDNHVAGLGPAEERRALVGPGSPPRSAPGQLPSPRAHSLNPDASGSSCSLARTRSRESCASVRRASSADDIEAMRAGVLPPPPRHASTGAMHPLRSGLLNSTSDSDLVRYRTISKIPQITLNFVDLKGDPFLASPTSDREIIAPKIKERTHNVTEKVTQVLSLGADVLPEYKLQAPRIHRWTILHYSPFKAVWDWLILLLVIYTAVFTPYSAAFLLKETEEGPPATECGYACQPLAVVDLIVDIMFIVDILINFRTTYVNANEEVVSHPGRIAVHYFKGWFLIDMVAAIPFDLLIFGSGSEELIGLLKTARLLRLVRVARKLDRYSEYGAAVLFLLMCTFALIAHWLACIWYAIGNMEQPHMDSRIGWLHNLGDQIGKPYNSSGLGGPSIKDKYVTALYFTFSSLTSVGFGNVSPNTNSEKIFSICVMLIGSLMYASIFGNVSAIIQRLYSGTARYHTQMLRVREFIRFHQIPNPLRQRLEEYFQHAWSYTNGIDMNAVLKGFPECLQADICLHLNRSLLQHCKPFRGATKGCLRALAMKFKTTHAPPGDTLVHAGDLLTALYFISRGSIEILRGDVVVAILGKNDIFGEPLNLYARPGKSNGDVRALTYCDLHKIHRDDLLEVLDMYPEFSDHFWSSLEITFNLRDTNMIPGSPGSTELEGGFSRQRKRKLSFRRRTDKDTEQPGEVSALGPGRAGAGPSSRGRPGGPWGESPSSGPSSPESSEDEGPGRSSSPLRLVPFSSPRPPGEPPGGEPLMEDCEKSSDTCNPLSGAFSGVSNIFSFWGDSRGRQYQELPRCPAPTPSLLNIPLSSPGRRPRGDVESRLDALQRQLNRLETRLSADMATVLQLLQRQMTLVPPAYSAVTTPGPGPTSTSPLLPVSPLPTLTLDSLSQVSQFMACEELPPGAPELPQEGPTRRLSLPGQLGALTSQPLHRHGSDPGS

Compound	hERG current change (%, negative = inhibition) at 1uM [%]
COc1cc(/C=N/NC(=O)c2ccc(N(C)S(=O)(=O)c3ccccc3)cc2)cc(OC)c1OC	10.6
Cc1nn(CCc2n[nH]c(=S)n2-c2ccc(F)cc2)c(C)c1[N+](=O)[O-]	12.2
O=C(CSCC(=O)Nc1ccccc1)N/N=C/c1c(O)ccc2ccccc12	4.6
Cc1cc(C)c2cc(C#N)c(SCC(=O)Nc3cc(C)on3)nc2c1	10.2
c1ccc(N2CCN(c3nc4ccccc4[nH]3)CC2)nc1	-9.25
COc1ccc(-c2cnc(SCC(=O)Nc3cc(C)on3)n2Cc2ccco2)cc1	5.24
Cc1nn(-c2ccc(Cl)nn2)c(=O)c2ccccc12	7.5
CC(C)C(C)NC(=O)COc1ncnc2ccccc12 (stereo not shown)	16.1
COc1c2c(cc3c1OCO3)CC[N+](C)=C2.[I-]	-3.98
COCc1cc(C)nc(SCC(=O)Nc2ccc3c(c2)OCO3)c1C#N	12.6
CC(=O)Cc1nsc(NC(=O)c2ccc(-c3cccc(Cl)c3)o2)n1	9.63
Cc1ccc(OC(C)C(=O)Nc2ccncc2)cc1C (stereo not shown)	13
COc1ccc(-c2nc(CN3CCN(Cc4ccccc4)CC3)c(C)o2)cc1	4.17
CN(C[C@H](c1ccccc1)N(C[C@H](Cc1ccccc1)N(CCc1ccccc1)N=O)N=O)N=O.[Na+]	13.8
O=C(CSc1nc(O)c(Cc2ccccc2)c(=O)[nH]1)Nc1nc2c(s1)CCCC2	14.6
Cn1c(=NC(=O)c2ccco2)sc2cccc(F)c21	-2.48
O=[N+]([O-])c1ccc(/C=N/Nc2nc3ccccc3o2)cc1	18.5
COc1cccc(C(=O)Cn2c(=O)n(CCC(=O)NCC3CCCO3)c(=O)c3cc(OC)c(OC)cc32)c1 (stereo not shown)	4.25
Cc1cc(C)cc(NC(=O)c2cc(C)nc3ccccc23)c1	3.42
CCc1ccc(-n2nc3ccc(NC(=O)c4ccc5c(c4)OCO5)cc3n2)cc1	9.63
COc1ccc(-c2cc(-c3ccc(OC)cc3)nc(-c3ccc4c(c3)NC(=O)CO4)c2)cc1	-6
CC(C)N1CCN(Cc2cc(F)ccc2-n2cccn2)CC1CCO (stereo not shown)	10.7

Compound	hERG current change (%, negative = inhibition) at 1uM [%]
Cc1cc(C)n(S(=O)(=O)c2cc(Cl)ccc2Cl)n1	10.8
COc1ccc(C2c3cc(OC)c(OC)cc3CCN2C2CC(=O)N(c3ccccc3)C2=O)cc1OC (stereo not shown)	-2.75
c1ccc(Oc2cccc(OCCCCSc3ncccn3)c2)cc1	5.69
CCCCOc1ccc(C2(C)NC(=O)N(C)C2=O)cc1 (stereo not shown)	19.3
CCOc1ccc(S(=O)(=O)N(CC(=O)O)c2ccccc2)cc1	9.78
O=[N+]([O-])c1cccc(/C=N\N=C2c3ccccc3-c3ccccc32)c1O	-0.89
CC1CCN(CCc2nc3cc(NC(=O)Nc4ccccc4)ccc3n2C)CC1	1.28
CN(C)c1ccc(-c2nc3cc(N)ccc3o2)cc1	10.2
Cc1oc2c(c1C(=O)Nc1cccc(C(=O)O)c1)CCCC2	10.8
NS(=O)(=O)c1ccc(N/C=C\C(=O)c2ccncc2)cc1	13.7
COc1ccc(-c2nc3ccccc3[nH]2)cc1	4.15
CCN(CC)CCCNC(=O)c1cc(-c2ccc(O)cc2)on1	-17.6
Cc1cc(C)cc(NC(=O)CSCc2nc3c(nnn3Cc3ccc(F)cc3)c(=O)[nH]2)c1	8.15
CSc1nnc(-c2ccccc2SC)o1	10.8
CCOC(=O)C1CCN(C(=O)C2CCN(S(=O)(=O)N3CCC4(CC3)OCCO4)CC2)CC1	14.1
CCC(=O)N1N=C(c2ccc(C)o2)CC1c1ccc(N(C)C)cc1 (stereo not shown)	14.7
CSc1nc2c(c(=O)n1-c1ccccc1)SCC2	8.99
CC(O)c1cccc(NC(=O)Cc2cccc3ccccc23)c1 (stereo not shown)	12.5
Nc1nc(NC(=O)c2cccs2)nn1-c1ccccc1	13.2
C#CCOCCOCCOCCNc1nc(N2CCN(C(=O)[C@H]([C@@H](C)CC)n3cc([C@@H](N)Cc4ccc(O)cc4)nn3)CC2)nc(N2CCN(C(=O)[C@H](Cc3cc4ccccc4[nH]3)n3cc([C@@H](N)CC(C)C)nn3)CC2)n1.Cl	10
COc1cc(/C=N/NC(=O)CNC(=O)c2cccs2)ccc1O	9.62
COc1ccc(C(=O)CN2C(=O)c3ccccc3C2=O)cc1	13

Compound	hERG current change (%, negative = inhibition) at 1uM [%]
Cc1cc(C)nc(N2N=C(c3ccccc3)CC2=O)n1	4.89
Cc1ccccc1OCCCCc1c(C)n[nH]c1C	6.27
Cc1nn(Cc2ccccc2Cl)c2sc(C(=O)NCc3ccc4c(c3)OCO4)cc12	8.36
CCN(CC(=O)Nc1ccc(Br)c(C)c1)CC(=O)NC(C)C	4.01
O=C(NCCCc1ccncc1)C1CCC(=O)N(Cc2cccc(C(F)(F)F)c2)C1 (stereo not shown)	2.3
O=C(NNC(=S)Nc1ccc(Cl)cc1)c1cccs1	4.33
CN1C(=O)Cc2cc(S(=O)(=O)NCc3cccs3)ccc21	11.1
CCN(CC)S(=O)(=O)c1cc(NC(=O)C2CSC3(C)CCC(=O)N23)ccc1C (stereo not shown)	-2.52
O=C(/C=C/c1ccc(S(=O)(=O)N2CCOCC2)cc1)NC(=S)NCCCn1ccnc1	12.7
O=C(NCCN1CCCCC1)c1ccc(/C=N/O)nc1	11.1
CC(C)(C)OC(=O)N1CCOCCOCCN(C(=O)OC(C)(C)C)CCOCC1	0.838
CCn1c(C(Cc2ccccc2)NC(=O)COC)nc2ccccc21 (stereo not shown)	2.31
S=C1NCN(Cc2ccco2)CN1	14.6
c1ccc(-c2nccc(-c3ccc4c(c3)OCO4)n2)cc1	13.7
Cc1cccc(CCNS(=O)(=O)c2ccc3c(c2)NC(=O)CS3)c1	9.39
Cc1ccc(OCCNC(=O)Cn2cnc3c(=O)n(C)c(=O)n(C)c32)cc1C	14.1
O=C(c1ccc2c(c1)OCO2)C1CCCN(Cc2c(F)cccc2Cl)C1 (stereo not shown)	0.9
COc1nccnc1NS(=O)(=O)c1ccc(NC(=O)c2ccccc2Br)cc1	13.1
Cc1ccc(-n2nc(C)c(NC(=O)CCl)c2C)cc1C	12
COc1ccc(NC(=O)CSc2nnc(NC(=O)CN3CCOCC3)s2)cc1	16.4
CCN1CCN(CC(=O)N2N=CCC2c2ccccc2)CC1 (stereo not shown)	10.2
CCc1nnc(NC(=O)[C@@H](NC(=O)c2cccc(S(=O)(=O)N(CC)CC)c2)C(C)C)s1	6.79

Compound	hERG current change (%, negative = inhibition) at 1uM [%]
Cc1noc2ncc(C(=O)c3cc(F)ccc3O)cc12	7.19
COc1cccc(CNC(=O)CSc2nnc3c(n2)[nH]c2ccc(F)cc23)c1	3.58
COC(=O)C(C(=O)OC)c1ccc(NC(=O)c2cccc(Cl)c2)cc1	9.74
CCOc1ccc(C2C(C#N)=C(N)SC(N)=C2C#N)c(OCC)c1	14.6
CCOCCCNC(=O)/C(C#N)=C/c1ccc(C)o1	3.56
CCN1CCCC1CNC(=O)c1ccc(N2CCCC2=O)cc1 (stereo not shown)	-0.17
O=C(COc1ccccc1)Nc1cccc2c1CCCC2	-1.31
O=C(C1CCN(S(=O)(=O)N2CCOCC2)CC1)N1CCN(c2ccccc2)CC1	13.6
C[C@@H]1C=C[C@](Cc2ccccc2)(C(=O)NCCc2c[nH]c3ccccc23)N1C(=O)c1ccccc1	12.9
C=C1CCN([C@@H](CC(C)C)C(=O)Nc2ccc(OC)cc2)S(=O)(=O)c2ccccc21	7.78
Cc1cc(C)cc(NC(=O)CN2CCN(CCN=CC3=C(O)CC(C)(C)CC3=O)CC2)c1	-15.1
O=C(CNC(=O)c1ccccc1Cl)Nc1ccc(Br)cc1C(=O)c1ccccc1	0.944
CCc1nn(CCCN2CCN(c3cccc(Cl)c3)CC2)c(=O)n1CCOc1ccccc1	-15.1
Cc1ccc(C2=NCCn3c2c2ccccc2[n+]3[O-])cc1	0.371
CC(OC(=O)c1ccncc1)C(=O)Nc1cccc([N+](=O)[O-])c1 (stereo not shown)	5
CN1C(=O)c2ccc(NC(=O)c3cccc(N4C(=O)CCC4=O)c3)cc2C1=O	9.04
Cc1ccc(C(=O)N/C(=C\c2ccc(-c3ccc(Br)cc3)o2)C(=O)NCCCN(C)C)cc1	-84.2
Cc1cc(C)nc(Sc2ccc3nnc(C(F)(F)C(F)(F)C(F)(F)F)n3n2)n1	11
c1ccc(-c2nnc(CN3CCCc4ccccc43)o2)cc1	-6.52
NC(=O)c1ccccc1NC(=O)Nc1cccc2ccccc12	18.4
CCN1CCN(CC(=O)NC2CCCC2)C(=O)C1=O	6.06
Cc1cc(C)c(-c2cc(C(=O)Nc3cc(C)ccc3C)[nH]n2)c(O)c1	8.58
